Literature values in patent US20040053864A1, “Methods and compositions for control of bone formation via modulation of neuropeptide y activity” (priority 2002, published 2004).

Experiments:
NPY Y5 receptor = molecular target: T1, NPY Y5 receptor (Homo sapiens, UniProt Q15761); details: preliminary results in U.S. Pat. No. 5,968,819; cited from earlier work
T1 sequence (Q15761 1-445): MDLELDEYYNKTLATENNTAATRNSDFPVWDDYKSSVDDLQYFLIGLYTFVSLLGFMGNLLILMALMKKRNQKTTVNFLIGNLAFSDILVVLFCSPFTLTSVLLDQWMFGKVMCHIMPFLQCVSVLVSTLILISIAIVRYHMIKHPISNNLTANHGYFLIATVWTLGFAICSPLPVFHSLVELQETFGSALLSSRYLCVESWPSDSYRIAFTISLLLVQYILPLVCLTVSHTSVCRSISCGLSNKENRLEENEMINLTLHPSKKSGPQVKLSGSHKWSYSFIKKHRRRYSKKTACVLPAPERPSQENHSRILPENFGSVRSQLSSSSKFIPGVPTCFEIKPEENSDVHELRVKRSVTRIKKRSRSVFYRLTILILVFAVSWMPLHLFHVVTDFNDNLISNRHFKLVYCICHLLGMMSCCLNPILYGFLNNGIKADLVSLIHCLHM

human NPY Y1 receptor = molecular target: T2, human NPY Y1 receptor (Homo sapiens, UniProt P25929); details: in vitro, cell lines transfected with human NPY Y1 receptor cDNA; from U.S. Pat. No. 5,571,695; cited from earlier work
T2 construct: expressed in transfected cells
T2 sequence (P25929 1-384): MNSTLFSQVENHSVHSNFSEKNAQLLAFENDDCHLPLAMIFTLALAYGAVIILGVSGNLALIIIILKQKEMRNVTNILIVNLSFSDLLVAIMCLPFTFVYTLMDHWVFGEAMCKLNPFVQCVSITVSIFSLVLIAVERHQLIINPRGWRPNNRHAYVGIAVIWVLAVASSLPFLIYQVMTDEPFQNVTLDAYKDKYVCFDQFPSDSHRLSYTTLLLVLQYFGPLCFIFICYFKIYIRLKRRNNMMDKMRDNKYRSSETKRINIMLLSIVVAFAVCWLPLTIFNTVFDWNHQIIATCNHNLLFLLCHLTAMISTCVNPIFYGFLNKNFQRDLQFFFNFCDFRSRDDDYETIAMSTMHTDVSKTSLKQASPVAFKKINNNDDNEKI

NPY Y1 receptor = details: in vivo; from U.S. Pat. No. 5,571,695; cited from earlier work

| Compound | function at NPY Y5 receptor (NPY Y5 receptor) | ability to block the NPY-induced increase in intracellular calcium (human NPY Y1 receptor) | ability to block NPY Y1 receptor-mediated increases in blood pressure (NPY Y1 receptor) |
| --- | --- | --- | --- |
| NCC(N)(Cc1ccccc1)c1cccc2ccccc12 (stereo not drawn) [2-(Naphthalen-1-yl)-3-phenylpropane-1,2-diamine] | functions as an NPY Y5 receptor antagonist | – | – |
| SALRHY: hexapeptide corresponding to residues 22-27 of the NPY molecule; NPY Y1 receptor antagonist (listed as Homo sapiens) | – | block the NPY-induced increase in intracellular calcium | block NPY Y1 receptor-mediated increases in blood pressure |
